Each structure is given as a SMILES string. Among all 150,000 compounds or so, about 540 (0.36%) showed an effect of 50% or more. The list shows a part of the results.

The assay deals with Plasmodium falciparum. Briefly: Primary screen in NF54 nanoGlo assay, in single point, at 2uM, 72h; a lower Z score goes with more inhibition. The class given is functional, Erythrocyte. To be noted: timepoint 72 hour.
As for `CC1CCN(S(=O)(=O)N2CCN(Cc3ccco3)CC2)CC1`, the “% Inhibition” value was -3% and the Z score turned out to be 0.46.

Regarding `CC1CN(CCC2CCCCO2)S(=O)(=O)C1` (stereo unspecified), the “% Inhibition” value is listed as -9% and the Z score was found to be 1.67.

Take `COc1cc(NC2CCN(C(=O)NCc3cncn3C)CC2)cc(OC)c1`: the “% Inhibition” value is listed as -2% and the Z score was 0.42.

As to `CCC(CC)CS(=O)(=O)N1CCC[C@H](CNS(N)(=O)=O)C1`, the “% Inhibition” value is recorded as -10% and the Z score was determined as 1.74.

Regarding `CCOC(=O)c1ccc(N2CCC(C)(C)S(=O)(=O)CC2)nc1`, the “% Inhibition” value was determined as 0% and the Z score was -0.06.

With `Cc1noc2ncc(C(=O)N3C[C@H](C)OC(C)(C)C3)cc12`, the “% Inhibition” value was found to be 36% and the Z score is given as -1.2.

On to `O=C(NCc1nc2c(s1)COCC2)N[C@H]1CC12CCCCC2`, for which the “% Inhibition” value was -3% and the Z score is recorded as 0.54.

Turning to `CN(C)Cc1cccc(-c2nc([C@H]3CCOC3)no2)c1`, the “% Inhibition” value was -14% and the Z score is 2.03.

For `COc1cc(C(=O)N2CCOCC2C2CCCC2=O)ccc1F` (stereo unspecified), the “% Inhibition” value is listed as -1% and the Z score is 0.19.

On to `CC(C)Oc1ccc([C@H]2CC(=O)Nc3nc(N4CCOCC4)sc32)cc1`, for which the “% Inhibition” value is on record as -13% and the Z score is listed as 1.71.

Take `Cc1cccc(O[C@H]2CCN(C(=O)Cn3ncccc3=O)C2)n1`: the “% Inhibition” value is listed as -8% and the Z score is 1.54.

`Cn1ncc(Cl)c(Oc2ccc(C(C)(C)C)cc2)c1=O`: the “% Inhibition” value is given as -1% and the Z score is 0.18.

As for `CC(C)N1CCN(C(=O)c2nnc(N3CCCCC3)c3ccccc23)CC1`, the “% Inhibition” value is 2% and the Z score is on record as -0.19.

Regarding `CCc1nnc(-c2c(C)c(S(=O)(=O)Nc3ccc(OC)cc3C)c(C)n2C)o1`, the “% Inhibition” value worked out at 4% and the Z score is given as -0.55.

In the case of `O=C(Nc1cc(-c2ccccc2)ns1)[C@H]1CCn2cncc2C1`, the “% Inhibition” value is -13% and the Z score is recorded as 1.33.

As to `O=C1CCC[C@H](CC(=O)N(CCC(F)(F)F)c2ccccc2)N1`, the “% Inhibition” value is listed as -3% and the Z score is reported as 0.61.

As to `O=c1c2cc(-c3ccc4c(c3)OCO4)nn2ccn1Cc1ccc2c(c1)OCO2`, the “% Inhibition” value is recorded as 6% and the Z score is given as -0.93.

As to `COC[C@@H]1C[C@H](OC)CN1c1ncc(F)cn1`, the “% Inhibition” value is -8% and the Z score worked out at 0.94.

Turning to `CC(c1ccc(S(C)(=O)=O)cc1)N1CCN(C)C(c2nccn2C)C1` (stereo unspecified), the “% Inhibition” value was -15% and the Z score was found to be 2.27.

In the case of `O=S(=O)(c1ccc(-c2ccno2)o1)N1CCN(c2ccccc2)CC1`, the “% Inhibition” value stood at 10% and the Z score is listed as -1.82.

Regarding `CC(C)(C)C(=O)N[C@@]1(C(F)(F)F)NC(=O)N(Cc2ccccc2Cl)C1=O`, the “% Inhibition” value is recorded as -1% and the Z score is 0.17.

With `Cc1ccc(Cn2cc([C@@H](CCc3ccccc3)CC(=O)NCCN3CCCC3)c3ccccc32)cc1`, the “% Inhibition” value is -10% and the Z score is 1.33.

Turning to `CCN(Cc1noc(C2CCC2)n1)C(=O)NC1CCN(C(=O)C(C)C)CC1`, the “% Inhibition” value is -12% and the Z score is recorded as 1.71.

Regarding `O=C(Nc1ccccn1)c1c(-c2ccccc2)c(-c2ccccc2)n[nH]c1=O`, the “% Inhibition” value is given as 3% and the Z score is recorded as -0.49.

`CCC(CC)NC(=O)CCC1CCCCC1`: the “% Inhibition” value is listed as -2% and the Z score is recorded as 0.3.

As for `CS(=O)(=O)N(CCN1CCOCC1)[C@H]1CCN(C(=O)NCCc2ccccc2)C1`, the “% Inhibition” value was -2% and the Z score was 0.28.

For the compound `CCO[C@@H](C)c1nc(CN(CC)c2cccc(CO)c2)cs1`, the “% Inhibition” value is on record as -17% and the Z score was 1.47.

As for `Cc1nonc1CC(=O)N1CC[C@](C)(O)[C@@H](O)C1`, the “% Inhibition” value is given as -12% and the Z score amounted to 1.17.

Turning to `Cc1cnc(NC[C@H]2CCCS2(=O)=O)nc1`, the “% Inhibition” value is -3% and the Z score was found to be 0.4.

For the compound `O=C1C[C@H]2CC[C@@H](CN1)N2C(=O)CCc1c[nH]c2ccccc12`, the “% Inhibition” value amounted to 2% and the Z score is on record as -0.19.

For `Cc1ccn(CCCN2C(=O)c3ccccc3C2=O)c(=O)c1C#N`, the “% Inhibition” value is listed as 25% and the Z score is recorded as -3.41.

`Cc1cc(OC2CCN(C(=O)c3cccc(N(C)C)c3)CC2)cc(=O)n1C`: the “% Inhibition” value was -2% and the Z score is on record as 0.32.

Take `CCn1cc(S(=O)(=O)N2CCC3(CCC(=O)N3Cc3ccc(F)cc3)CC2)cn1`: the “% Inhibition” value was found to be 6% and the Z score is on record as -0.85.

`O=C(c1nccc2ccccc12)N1CC[C@H](OCc2ccccc2)C1`: the “% Inhibition” value is recorded as -2% and the Z score worked out at 0.35.

As for `Cc1ncc(-c2ccc(S(=O)(=O)NC3CCCCC3)s2)o1`, the “% Inhibition” value is -5% and the Z score worked out at 0.54.

`CCOC(=O)C1CCC(CN(Cc2ccc(OC)cc2)S(=O)(=O)c2ccc(F)c(C(=O)Nc3cc(Cl)ccc3OC)c2)CC1` (stereo unspecified): the “% Inhibition” value is -5% and the Z score was 0.64.

`COCCNC(=O)c1ccc(Cl)c(N)c1`: the “% Inhibition” value was -4% and the Z score came out at 0.77.

As for `O=C(N[C@H]1CC[C@H](n2cnnc2)CC1)c1ccc(-c2ccccc2)[nH]1`, the “% Inhibition” value is -11% and the Z score amounted to 1.39.

As to `CS(=O)(=O)[C@H]1CCCCN(C(=O)c2cc(C#N)ccn2)C1`, the “% Inhibition” value was -7% and the Z score came out at 1.05.

Turning to `O=c1[nH]ncn1C1CCN(Cc2csc3ccccc23)CC1`, the “% Inhibition” value is -8% and the Z score was found to be 1.38.

Regarding `O=S(=O)(c1ccccc1F)N1CCN(c2ccc(C3CC3)nn2)CC1`, the “% Inhibition” value was found to be 12% and the Z score is -1.57.

Regarding `COc1ccc(Cl)cc1NC(=O)N1CCc2c(c(=O)c3cc(C)cc(C)c3n2C)C1`, the “% Inhibition” value is reported as -3% and the Z score came out at 0.41.

Turning to `Cc1c[nH]c(C(=O)N(C)[C@@H](C)Cc2cnccn2)n1`, the “% Inhibition” value is on record as -10% and the Z score is given as 1.85.

The values above are taken from ChEMBL document CHEMBL4888484, “Replenishing the malaria drug discovery pipeline: Screening and hit evaluation of the MMV Hit Generation Library 1 (HGL1) against asexual blood stage Plasmodium falciparum ,using a nano luciferase reporter read-out” (2022).
